{"source": "patent US12577273B2", "about": "“Small molecule modulators of gut bacterial bile acid metabolism” (priority 2019, dated 2026)", "key": {"B. fragilis": {"system": "B. fragilis", "experiment": "Inhibitor screen in bacteria, B. fragilis culture", "format": "cell-based, Bacteroides fragilis ATCC 25285", "settings": "FIG. 2c, 100 μM inhibitor, 100 μM bile acid pool, 21 h, replicates 1-3", "description": "(§1) Bacterial Culturing. All bacterial strains were cultured at 37° C. in Cullen-Haiser Gut (CHG) media (which consists of brain heart infusion media (Bacto™ BHI, BD) supplemented with 1% BBL vitamin K1-hemin solution (BD), 1% trace minerals solution (ATCC), 1% trace vitamins solution (ATCC), 5% fetal bovine serum (Hyclone), 1 g/L cellubiose, 1 g/L maltose, and 1 g/L fructose) or BHI^+ (Bacto™ BHI, BD, supplemented with 5 mg/L hemin, and 2.5 uL/L Vitamin K1). All strains were grown under anaerobic conditions in a anaerobic chamber (Coy Lab Products Airlock) with a gas mix of 5% hydrogen and 20% carbon dioxide nitrogen. Escherichia coli was grown aerobically at 37° C. in LB medium supplemented with ampicillin to select for the pET21b plasmid.\n(§2) Inhibitor Screen in Bacteria. Bacterial cultures were diluted to OD600 of 0.1 in 4 mL BHI^+, containing 100 μM taurine conjugated bile acid pool 100 μM inhibitors. […] After 21 h, serial dilutions were plated on BHI^+ agar to determine cell viability (CFU/mL). […] The cultures were spun down in a centrifuge at 2,500 g for 5 mins to obtain better separation. The organic layer was then removed and the aqueous layer was extracted again using 2 mL of ethyl acetate."}, "B. theta": {"system": "B. theta", "experiment": "Inhibitor screen in bacteria, B. theta culture", "format": "cell-based, Bacteroides thetaiotaomicron VPI-5482", "settings": "FIG. 2c, 100 μM inhibitor, 100 μM bile acid pool, 21 h, replicates 1-3", "description": "as §1, §2"}, "C. perfingens": {"system": "C. perfingens", "format": "cell-based, Clostridium perfringens ATCC 13124", "settings": "FIG. 2c, C. perfingens culture; 100 μM inhibitor, 100 μM bile acid pool, 21 h; replicates 1-3"}}, "note": "Where “and” joins values, the source holds several entries; their conditions need not be identical. Identical values can stand only once.", "data": [{"molecule": "C[C@H](CCC(=O)CF)[C@H]1CC[C@H]2[C@@H]3[C@H](O)C[C@@H]4C[C@H](O)CC[C@]4(C)[C@H]3CC[C@]12C", "note": "[Compound 7]", "values": [{"measurement": "% deconjugation of TCA", "setting": "B. fragilis", "value": "1.14% and 1.51% and 1.11%"}, {"measurement": "% deconjugation of TDCA", "setting": "B. fragilis", "value": "9.74% and 8.92% and 5.67%"}, {"measurement": "% deconjugation of TUDCA", "setting": "B. fragilis", "value": "6.33% and 10.78% and 9.04%"}, {"measurement": "% deconjugation of TβMCA", "setting": "B. fragilis", "value": "4.96% and 4.15% and 2.69%"}, {"measurement": "% deconjugation of TβMCA", "setting": "B. theta", "value": "0.63% and 0.17% and 0.00%"}, {"measurement": "% deconjugation of TCA", "setting": "C. perfingens", "value": "19.18% and 14.04% and 7.40%"}, {"measurement": "% deconjugation of TDCA", "setting": "C. perfingens", "value": "78.88% and 69.68% and 54.57%"}, {"measurement": "% deconjugation of TUDCA", "setting": "C. perfingens", "value": "9.84% and 18.06% and 15.54%"}, {"measurement": "% deconjugation of TβMCA", "setting": "C. perfingens", "value": "7.40% and 4.72% and 4.84%"}]}]}
